Laboratory results reported in PubChem BioAssay AID1460 (National Center for Advancing Translational Sciences (NCATS), 2008).
About 5,800 (2.1%) of roughly 270,000 compounds were called active. Roughly 16% stayed inconclusive and do not appear here. Calls follow the shape of the dose curve; as a rule, active = well fitted inhibition curve with a large enough effect; inconclusive = small, poorly fitted or top-dose-only effect; inactive = flat fitted curve, though single readings scatter. The entries are a selection whose mix differs from that of the whole data set. A structure can be active in one record and inactive in another.

target: Microtubule-associated protein tau (Homo sapiens) (UniProt P10636); assay: qHTS for Inhibitors of Tau Fibril Formation, Thioflavin T Binding; conditions: recombinant tau K18 P301L, heparin-induced fibrillization, ThT fluorescence; series mostly up to 57.4 µM; activity, negative = inhibition: at the top concentration; also: nearly all actives have a fitted effect of over 55% in size
Summary of the method: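 Fibril formation assay: tau K18 P301L at 15 uM with trace Alexa 594 label, heparin inducer 20 uM, pH 7 sodium acetate buffer, 37 C for 6 hr; endpoint ThT signal.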
% is scaled to controls: 0 for no effect and ±100 for the full control effect; potency is read from the fitted curve at half-maximal effect.

Chain of UniProt P10636 (P10636 whole entry, looked up): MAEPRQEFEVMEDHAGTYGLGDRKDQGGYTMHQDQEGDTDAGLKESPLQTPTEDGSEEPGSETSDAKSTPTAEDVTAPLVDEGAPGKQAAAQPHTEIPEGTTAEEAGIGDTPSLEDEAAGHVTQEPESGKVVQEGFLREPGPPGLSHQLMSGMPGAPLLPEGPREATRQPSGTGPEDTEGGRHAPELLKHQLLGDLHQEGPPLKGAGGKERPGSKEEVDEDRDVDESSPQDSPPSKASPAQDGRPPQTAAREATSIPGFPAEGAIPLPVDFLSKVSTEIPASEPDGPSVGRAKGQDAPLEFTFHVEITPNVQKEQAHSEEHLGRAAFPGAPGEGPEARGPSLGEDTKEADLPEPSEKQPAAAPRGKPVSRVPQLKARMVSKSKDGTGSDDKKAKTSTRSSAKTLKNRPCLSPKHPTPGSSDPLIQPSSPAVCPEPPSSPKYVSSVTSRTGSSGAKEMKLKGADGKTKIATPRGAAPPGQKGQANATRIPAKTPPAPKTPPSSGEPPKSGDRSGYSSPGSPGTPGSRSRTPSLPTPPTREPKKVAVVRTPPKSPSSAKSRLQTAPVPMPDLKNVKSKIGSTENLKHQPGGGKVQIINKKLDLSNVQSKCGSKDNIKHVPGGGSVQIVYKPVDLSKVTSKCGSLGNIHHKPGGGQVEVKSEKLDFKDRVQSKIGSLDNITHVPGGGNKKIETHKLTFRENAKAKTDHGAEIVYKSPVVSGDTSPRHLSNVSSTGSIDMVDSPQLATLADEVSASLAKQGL

| SMILES | activity, negative = inhibition | Potency |
| --- | --- | --- |
| NC(C(=O)O)c1ccc(P(=O)(O)O)cc1 (stereo not drawn) | inactive: 3.34% |  |
| CCOCCCNC(=O)C(Cc1ccccc1)NS(=O)(=O)c1ccc2c(c1)c(=O)n(C)c(=O)n2C (stereo not drawn) | inactive: -3.8% |  |
| O=C(O)/C=C/c1cn(-c2ccccc2)nc1-c1cc2ccccc2o1 | inactive: -5.19% |  |
| CCCCC/C=C\CC(O)/C=C/c1cccc(CC(O)CCCCO)n1 (stereo not drawn) |  | inactive |
| CCCCCCCCCCCCC/C=C/[C@@H](O)[C@H](CO)NC(C)=O | inactive: 3.32% |  |
| Cc1nc2c(-c3ccc(F)cc3)c(C)nn2c(C)c1CCC(=O)N1CCN(c2ccccc2)CC1 | inactive: -3.92% |  |
| COn1c2c(c3c4nonc4ccc31)CCCC2 |  | active: 14.1 µM |
| O=C1CCCCC/C1=N/Nc1ccc(OCc2ccccc2)cc1 |  | active: 11.2 µM |
| CC1CCC(C(C)C)C(OC(=O)Cn2c(-c3ccc(Br)cc3)[n+](C)c3ccccc32)C1 (stereo not drawn) | inactive: -9.93% |  |
| CCOC(=O)c1cnc2ccccc2c1NCCc1ccc(OC)c(OC)c1 | inactive: -14.3% |  |
| Cn1cc(/C=C2\SC(=O)NC2=S)c2ccccc21 |  | active: 2 µM |
| Nc1c2ccccc2nc2ccccc12 (tested in a mixture with another compound) | inactive: -12.2% |  |
| O=C(c1ccccc1)c1sc(N2CCCCCC2)nc1-c1ccccc1 | inactive: -21.8% |  |
| COc1ccc(COc2cc(-c3cccc(OC)c3)nc3ccc(NC(=O)c4ccc(N(C)C)cc4)cc23)cc1 | inactive: -18% |  |
| CCOC(=O)/C=C/C(=O)Nc1ccccc1-c1ccccc1NC(=O)/C=C/C(=O)OCC |  | active: 20 µM |
| O=C(N/N=C\c1cccc([N+](=O)[O-])c1O)C1COc2ccccc2O1 (stereo not drawn) |  | active: 7.94 µM |
| C[n+]1ccc(/C=N/Nc2nc(Cl)c(C#N)c(Cl)c2Cl)cc1 |  | active: 12.6 µM |
| C[C@]12CC[C@@H]3c4ccc(O)cc4CC[C@H]3[C@@H]1CCC2=O |  | inactive |
| O=C(c1ccc(F)cc1)C1CCN(CCn2c(=O)[nH]c3ccccc3c2=O)CC1 | inactive: -10.1% |  |
| CCOC(=O)C1=C[C@]2(CC)CCCN3CCc4c(n1c1ccccc41)[C@@H]32 | inactive: -4.25% |  |
| c1ccc(-c2csc(Nc3ccc4c(c3)OCCO4)n2)cc1 |  | active: 12.6 µM |
| COC(=O)CCC(=O)OC1(C)C(=O)C=C2C=C(C3CC3)N(Cc3ccccc3)C=C2C1=O (stereo not drawn) | inactive: -1.24% [at 11.5 µM] |  |

| SMILES | activity, negative = inhibition | Potency |
| --- | --- | --- |
| CN(C)c1ccc(/C=C/C=C2/SC(=S)N(c3ccccc3)C2=O)cc1 |  | active: 2.51 µM |
| O=C(NCCc1c[nH]c2ccccc12)[C@@H]1C[C@H]1[C@@H](NP(=O)(c1ccccc1)c1ccccc1)c1ccccc1 | inactive: 5.09% |  |
| CC(C)Cn1c(N)c(C(=O)COC(=O)c2cc(C(F)(F)F)nc3c(C(F)(F)F)cccc23)c(=O)n(C)c1=O | inactive: -12.6% |  |
| Cc1cc(N2CCCC2)ccc1/C=N/n1cnnc1 |  | active: 7.08 µM |
| NC(=O)C1=C[C@H](c2ccc(Br)cc2)C[C@H](OCc2ccc(CO)cc2)O1 | inactive: -7.97% |  |
| COc1ccc(NC2=CC(c3ccccc3)N(c3ccc(OC)cc3)C2=O)cc1 (stereo not drawn) | inactive: -13.7% |  |
| O=C1NC[C@@H](Cc2ccc(O)cc2)N(CCc2cccc3ccccc23)C1=O | inactive: -2.84% |  |
| Nc1ccccc1C#Cc1ccccc1 | inactive: -17.9% |  |
| CCCCC1=CC2=CC(=O)C(C)(OC(=O)CCc3ccccc3)C(=O)C2=CO1 (stereo not drawn) | inactive: -6.13% |  |
| CCc1nc(-c2cc(S(=O)(=O)N3CCN(c4ccc(OC)cc4)CC3)ccc2OC)no1 |  | active: 28.2 µM |
| CCOC(=O)/C(C#N)=C\c1ccc(N2CCN(C)CC2)cc1 | inactive: -19.2% |  |
| CCOC(=O)CNC(=O)O[C@H]1C(=O)c2ccc(OC)cc2O[C@@H]1c1ccc2c(c1)OCO2 | inactive: -18.6% |  |
| c1ccc(-c2nnc(CN3CCN(c4ccccc4)CC3)o2)cc1 | inactive: -4.53% |  |
| Cc1cccc(/C=C\c2nc3ccccc3c(=O)[nH]2)c1 | inactive: -14.8% |  |
| COc1cc(NCCCC(C)N)c2ncccc2c1 (stereo not drawn) |  | active: 25.1 µM |
| Cc1nn(Cc2ccc(Cl)cc2)c(C)c1NC(=O)c1noc2c1CCc1ccccc1-2 | inactive: -9.74% |  |
| COC(=O)c1cccc(-n2c(CCC(=O)O)ccc2-c2cccs2)c1 | inactive: -10.5% |  |
| CN1CCc2c(sc3c2C(=O)NC(c2cn(Cc4ccccc4)c4ccccc24)N3)C1 (stereo not drawn) |  | active: 17.8 µM |
| CC(=O)n1cc([C@@H]2C=C(C(=O)N3CCOCC3)O[C@H](OCc3ccc(CO)cc3)C2)c2ccccc21 | inactive: -11.2% |  |
| COc1cccc(NC(=O)CSc2c3c(nc4ccccc24)CCCC3)c1 | inactive: 2.32% |  |
| CCN(CC)c1ccc(/C=C/C(=O)C2C(=O)C=C(C)OC2=O)cc1 (stereo not drawn) |  | active: 3.16 µM |
| C[C@@H](C(=O)NCC1CC1)[C@@H]1C[C@@]1(C)[C@@H](NC(=O)OCc1ccccc1)c1ccccc1 |  | inactive |

| SMILES | activity, negative = inhibition | Potency |
| --- | --- | --- |
| O=C1OC(c2ccccc2)=C/C1=C/N1CCOCC1 | inactive: -16.1% |  |
| Nn1nnc2ccccc21 | inactive: -3.43% |  |
| CC[C@H](C)[C@@H](NC(=O)O[C@@H]1C(=O)c2cc(OC)ccc2O[C@H]1c1ccc(OC)c(Br)c1)C(=O)OC |  | inactive |
| CC(C)c1ccc(C2CC(=O)N3CN(C4CCCCC4)CSC3=C2C#N)cc1 (stereo not drawn) |  | active: 22.4 µM |
| C[C@H](NC(=O)/C(C#N)=C/c1ccc(O)c(O)c1)c1ccccc1 | inactive: -7.49% |  |
| CCCCC1=CC2=C(c3ccco3)C(=O)C(C)(OC(=O)c3ccc(OC)cc3)C(=O)C2=CN1CCCN(CC)CC (stereo not drawn) | inactive: -10.1% [at 11.5 µM] |  |
| O=C(/C=C/NNC(=O)c1ccccc1)c1ccc(Br)cc1 |  | active: 25.1 µM |
| CCc1ccc2c(Cl)c(C(=O)N/N=C/c3c[nH]c4ccccc34)sc2c1 |  | active: 10 µM |
| Cc1cc(=O)n2[nH]c(=O)c(N=Nc3ccccc3)c2[nH]1 |  | active: 14.1 µM |
| CCOc1nc(NC(=O)NS(=O)(=O)Oc2cccc(Cl)c2)nc(-c2ccccc2)n1 | inactive: -5.32% |  |
| C#CCNC(=O)C1=C[C@@H](C2CCCCC2)C[C@@H](OCc2ccc(CO)cc2)O1 | inactive: -9.28% |  |
| C=CCNC1=C2C[C@@H](C)C[C@H](OC)[C@H](O)[C@@H](C)/C=C(\C)[C@H](OC(N)=O)[C@@H](OC)/C=C/C=C(\C)C(=O)NC(=CC1=O)C2=O | inactive: -23.9% [at 11.5 µM] |  |
| O=C(O)c1ccccc1Nc1ccc([N+](=O)[O-])cc1 |  | active: 10 µM |
| COc1ccc(N2CCN(C(=O)Nc3ccccc3Cl)CC2)cc1 | inactive: -19.4% |  |
| CCCC(=O)n1nc(-c2cccnc2)nc1NCc1ccccc1 | inactive: -12.9% |  |
| COc1cc2ccc(=O)oc2c(O)c1OCC=C(C)C | inactive: -0.817% |  |
| CC(C)c1nc(CN(C)C(=O)N[C@H](C(=O)N[C@@H](Cc2ccccc2)C[C@H](O)[C@H](Cc2ccccc2)NC(=O)OCc2cncs2)C(C)C)cs1 | inactive: -14.2% |  |
| COC(=O)[C@@]1(Cc2ccc(OC)cc2)[C@H]2c3cc(C(=O)N4CCCC4)n(CCc4c[nH]c5ccc(O)cc45)c3C[C@H]2CN1C(=O)c1ccccc1 | inactive: -10.5% |  |
| CC(C)OC(=O)/C(=C/c1ccc2c(c1)c1ccccc1n2C)NC(=O)c1ccccc1 | inactive: -9.67% |  |
| COc1ccc(-c2ccc(CCC(=O)O)n2-c2ccccc2O)cc1 | inactive: -19.6% |  |
| O=C(O)CCCN1C(=O)/C(=C\c2ccc(-c3nc4ccccc4s3)o2)SC1=S |  | active: 2.51 µM |
| CC(CN1c2ccccc2Sc2ccccc21)N(C)C (stereo not drawn) |  | inactive |

| SMILES | activity, negative = inhibition | Potency |
| --- | --- | --- |
| COC(=O)c1ccc(CN2[C@H](C(=O)OC)C[C@@]3(O)[C@@H](O)[C@@H](O)[C@@H](O)C[C@@H]23)cc1 |  | inactive |
| N#C/C(=C/c1ccc2c(c1)OCO2)C(=O)NCCc1c[nH]c2ccccc12 |  | active: 12.6 µM |
| O=C1/C(=C\c2ccco2)CCC/C1=C\c1ccco1 |  | active: 17.8 µM |
| O=C1c2ccccc2-c2n[nH]c3cccc1c23 |  | inactive |
| O=C(N/N=C/c1ccc(Cl)cc1)c1nc2ccc([N+](=O)[O-])cc2c(=O)[nH]1 |  | active: 15.8 µM |
| COc1cccc(-c2cc(=O)c3cc(NC(=O)c4ccc(Cl)cc4)ccc3[nH]2)c1 | inactive: -17.7% [at 81.4 µM] |  |
| OCc1ccc(-c2nn(Cc3ccccc3)c3ccccc23)o1 | inactive: -15.9% |  |
| CO/N=C(\C(=O)N[C@@H]1C(=O)N2C(C(=O)O)=C(COC(C)=O)CS[C@H]12)c1csc(N)n1 (stereo in doubt) | inactive: -3.88% |  |
| Cc1ccccc1Nc1c(-c2ccc(N3CCOCC3)cc2)nc2ncccn12 | inactive: -23% |  |
| CC1(OC(=O)CCc2ccccc2)C(=O)C=C2C=C(c3ccc(C#N)cc3)N(Cc3ccccc3)C=C2C1=O (stereo not drawn) | inactive: -5.38% [at 11.5 µM] |  |
| CCCn1c(O)c(N=Nc2ccc3ccccc3n2)c2ccccc21 |  | active: 12.6 µM |
| CCCCCCCC#Cc1ccccc1/C=N/S(=O)c1ccc(C)cc1 (stereo not drawn) | inactive: -19.9% [at 11.5 µM] |  |
| O=C(C1=C[C@H](c2ccc(Br)cc2)C[C@H](OCCCCO)O1)N1CCN(Cc2ccc3c(c2)OCO3)CC1 | inactive: -14.3% |  |
| COC(=O)CCCC1=CC2=C(c3ccccc3)C(=O)C(C)(OC(=O)C3CCCC3)C(=O)C2=CN1C1CC1 (stereo not drawn) | inactive: 1.34% [at 11.5 µM] |  |
| Cc1occc1C(=O)N/N=C/C=C\c1ccccc1[N+](=O)[O-] | inactive: -18% |  |
| O=C(O)/C(=C\c1ccco1)NC(=O)c1ccccc1 | inactive: 2.1% |  |
| COC(=O)C1=C(C)N(Cc2ccccc2)C2=C(C(C)=O)C(c3ccccc3)[C@@](O)(C(=O)OC)C(=O)N2C1c1ccccc1 (stereo partly drawn) | inactive: -4.85% [at 11.5 µM] |  |
| CN=c1scc(-c2cccs2)n1/N=C/c1ccc(O)c(O)c1O |  | active: 12.6 µM |
| C[C@H]1c2cccc(O)c2C(O)=C2C(=O)[C@]3(O)C(O)=C(C(N)=O)C(=O)[C@@H](N(C)C)[C@@H]3[C@@H](O)[C@@H]21 |  | inactive |
| COC(=O)CCCC1=CC2=CC(=O)C(C)(OC(=O)c3cccs3)C(=O)C2=CN1Cc1ccc2c(c1)OCO2 (stereo not drawn) | inactive: -15.3% [at 11.5 µM] |  |
| Fc1ccc(Nc2c(-c3ccco3)nc3ccccn23)cc1 | inactive: 3.32% |  |
| CC1CCN(C(=O)C(C)Sc2nc(-c3ccccc3)cc(C(F)(F)F)n2)CC1 (stereo not drawn) | inactive: -14.1% |  |
